# From article PMC4336329 (PLoS ONE, 2015)
# In all, about 310,000 compounds went through this assay and about 2,200 (0.71%) showed an effect of 50% or more. Effects have a minus sign here. Some of the results follow.
# Molecular target: human ether-à-go-go-related gene (hERG) potassium channel (human, UniProt Q12809)
# Experiment: primary screen, population patch clamp on CHO cells stably expressing hERG
# Sequence of human ether-à-go-go-related gene (hERG) potassium channel (Q12809 whole entry, looked up): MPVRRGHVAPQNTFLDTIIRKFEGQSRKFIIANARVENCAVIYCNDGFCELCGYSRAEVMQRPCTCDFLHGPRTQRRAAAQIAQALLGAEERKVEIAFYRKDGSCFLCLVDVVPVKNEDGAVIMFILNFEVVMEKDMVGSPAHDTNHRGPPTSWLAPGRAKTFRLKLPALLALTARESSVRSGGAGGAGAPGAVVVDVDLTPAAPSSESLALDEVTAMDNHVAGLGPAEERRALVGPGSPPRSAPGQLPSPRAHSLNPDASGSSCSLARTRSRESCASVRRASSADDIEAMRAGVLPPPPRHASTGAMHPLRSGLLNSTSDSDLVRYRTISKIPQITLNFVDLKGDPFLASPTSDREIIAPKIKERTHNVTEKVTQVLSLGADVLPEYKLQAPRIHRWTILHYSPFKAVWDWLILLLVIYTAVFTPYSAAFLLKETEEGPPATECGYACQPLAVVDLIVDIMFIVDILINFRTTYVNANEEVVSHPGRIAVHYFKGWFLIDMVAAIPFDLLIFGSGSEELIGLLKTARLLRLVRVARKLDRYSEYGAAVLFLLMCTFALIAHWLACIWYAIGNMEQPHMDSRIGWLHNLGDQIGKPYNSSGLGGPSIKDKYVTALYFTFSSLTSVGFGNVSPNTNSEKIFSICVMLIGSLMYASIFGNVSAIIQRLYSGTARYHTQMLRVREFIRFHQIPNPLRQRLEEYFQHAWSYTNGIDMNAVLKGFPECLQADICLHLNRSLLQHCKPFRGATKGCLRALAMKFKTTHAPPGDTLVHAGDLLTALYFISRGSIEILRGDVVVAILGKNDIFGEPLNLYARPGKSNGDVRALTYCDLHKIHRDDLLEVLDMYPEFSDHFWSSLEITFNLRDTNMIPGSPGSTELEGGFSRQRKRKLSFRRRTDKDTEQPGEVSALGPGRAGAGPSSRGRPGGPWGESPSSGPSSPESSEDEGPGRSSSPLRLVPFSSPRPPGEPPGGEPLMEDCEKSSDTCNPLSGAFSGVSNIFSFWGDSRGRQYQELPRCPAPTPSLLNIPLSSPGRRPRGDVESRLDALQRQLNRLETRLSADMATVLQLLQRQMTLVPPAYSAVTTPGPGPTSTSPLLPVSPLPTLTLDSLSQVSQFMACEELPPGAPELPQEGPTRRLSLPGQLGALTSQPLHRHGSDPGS
row,SMILES,"hERG current change (%, negative = inhibition) at 1uM [%]"
1,COc1ccc(-c2cc(C(=O)NCc3ccco3)c3ccccc3n2)cc1OC,2.33
2,Cc1ccc(C(=O)NC(=S)N2CCN(c3ccc([N+](=O)[O-])cc3)CC2)cc1,-5.54
3,CCO[C@H]1OC(C(=O)N2CCN(Cc3ccc4c(c3)OCO4)CC2)=C[C@@H](c2cn(C(C)=O)c3ccccc23)[C@@H]1CCCO,0.802
4,Cc1onc(-c2ccccc2Cl)c1C(=O)NC(=S)NCCc1ccccc1,-2.53
5,CCN=c1sc(C(=O)Nc2ccccc2)c(C)n1CC,17
6,O=C(CSC1=NS(=O)(=O)c2ccccc2N1)c1ccccc1,2.41
7,Nc1nc(Nc2ccccc2Br)nc(C(F)(F)F)n1,9.56
8,CCC(=O)Nc1nc(C)c(Oc2ccccc2)c(=O)[nH]1,5.01
9,CC(=O)N(C(C)=O)c1cccc2c(N(C(C)=O)C(C)=O)cccc12,8.26
10,Cc1n[nH]c(=O)n1-c1ccc(OCc2ccccc2)cc1,14.7
11,COc1cc(C)c(Cl)cc1S(=O)(=O)NCCCN1CCOCC1,-3.65
12,C/C(Cc1ccccc1)=N\NC(=O)CNC(=O)c1ccccc1O,2.86
13,C=CCc1c(C)nc(SCC(N)=O)[nH]c1=O,10.7
14,Cc1c(OCC(=O)NCc2ccncc2)ccc2c3c(c(=O)oc12)CCCC3,3.26
15,COc1ccc(OC)c(S(=O)(=O)N2CCN(C(=O)c3cc(C4CC4)nn3-c3ccccc3)CC2)c1,6.74
16,CCOC(=O)c1cn(CC(=O)Nc2ccc3c(c2)OCCO3)nn1,8.58
17,CCc1cccc(C)c1NC(=S)N(Cc1cccnc1)Cc1ccco1,1.42
18,Cc1cc(C)c2nc(NC(=O)c3ccc4c(c3)OCO4)sc2c1,4.12
19,CCOC(=O)c1[nH]c(C)c(C(=O)OCC(=O)N2CC(=O)Nc3ccccc32)c1C,8.63
20,Cc1nc(-c2ccc(Cl)cc2)sc1C1(C)CC(c2cccc(Cl)c2)=NO1 (stereo not shown),4.46
21,CC(C)C[C@H](NC(=O)N1CC(=O)Nc2ccccc21)C(=O)N1CCC[C@H]1C(=O)O,12.7
22,CCOc1ccccc1NC(=O)NC1(C(=O)NCc2cccnc2)CCCCC1,14.7
23,O=C(Cc1cccs1)NCCn1ccc2ccccc21,6.3

row,SMILES,"hERG current change (%, negative = inhibition) at 1uM [%]"
1,CCC(Oc1ccccc1)C(=O)Nc1ccc(-c2nnc(-c3ccco3)o2)cc1 (stereo not shown),-11.2
2,O=S(=O)(NCc1ccc(F)cc1)c1ccc2c(c1)OCCO2,8.92
3,COc1ccccc1C(CNC(=O)CNC(=O)c1ccccc1Cl)N1CCCC1 (stereo not shown),11.8
4,CN(CCc1ccccn1)S(=O)(=O)c1ccc2c3c(cccc13)C(=O)N2,4.65
5,Cc1ccc(S(=O)(=O)NC(CC(C)C)C(=O)N2CCOCCOCCOCC2)cc1 (stereo not shown),14.4
6,O=S(=O)(NCC(c1ccccc1)N1CCNCC1)c1ccc(Cl)cc1 (stereo not shown),4.55
7,COc1cc2c(cc1OC)C(c1ccccc1O)N(C1CC(=O)N(c3ccccc3)C1=O)CC2 (stereo not shown),2.14
8,CCOP(=O)(OCC)C(c1ccccc1)N(C)C=O (stereo not shown),-7.97
9,C/C(=N\NC(=O)C(N)=O)c1ccc(OC(F)F)cc1,4.24
10,CC(Oc1ccccc1F)C(=O)/C=C/N(C)C (stereo not shown),22
11,CCCN1CN=C(NS(=O)(=O)c2ccc(C)cc2)NC1,15.9
12,O=C(NCc1ccccc1)c1cccn(Cc2ccccc2)c1=O,6.04
13,O=C(OCCc1cc2ccccc2c(=O)o1)c1ccc2c(c1)OCO2,12.3
14,Cc1ccc(N2C(=O)Nc3ccccc3S2(=O)=O)cc1Cl,8.43
15,CCCNC(=O)c1cc2ccccc2c(=O)o1,10.5
16,COc1ccc2oc(=N)c(C(=O)Nc3ccc(C)cc3)cc2c1,16.1
17,COC(=O)[C@H](Cc1ccccc1)NS(=O)(=O)N[C@@H](Cc1ccccc1)C(=O)OC,11.4
18,CC(C)(C)Cc1nnc(NC(=O)CSc2ccccc2)s1,12.2
19,O=C(O)c1cc(-c2ccc(Cl)cc2)n(-c2ccccc2)n1,21.9
20,O=C(CSc1nnc(COc2cccc3cccnc23)o1)N1CCCC1,10.8
21,CCn1ccc(C(=O)NC2CCCC2)n1,8.64
22,O=C(O)CC(CC(=O)Nc1ccc(-n2ccc(C(F)(F)F)n2)cc1)c1ccccc1 (stereo not shown),12.5
23,CC(C)(C)NC(=O)CN(Cc1ccccc1)S(=O)(=O)c1ccccc1,1.65

row,SMILES,"hERG current change (%, negative = inhibition) at 1uM [%]"
1,CC1(C)CC(=O)C(C2(O)C(=O)NC(=O)NC2=O)=C(O)C1,6.08
2,CCOC(=O)c1nn(-c2ccccc2)c(=O)cc1OCC(=O)Nc1cc(C)ccc1C,9.15
3,O=C(NCCC(c1ccccc1)c1ccccc1)c1cnc2sccn2c1=O,11.6
4,O=C(O)c1ccc2cc(-c3ccccc3)[nH]c2c1,-5.71
5,CCCCNC(=O)COC(=O)CCC(=O)c1cccs1,11.3
6,CN(CC(=O)Nc1ccccc1C(F)(F)F)C(=O)c1cc2c(s1)CCCCC2,-0.557
7,O=C(NC1CCCC1)c1cc2ccccc2o1,3.79
8,COc1ccc(Cl)cc1NC(=O)CN(C)C(C)C(=O)NC(=O)NC1CCCCC1 (stereo not shown),11.5
9,O=C(CC1CCCC1)Nc1ccc(Br)cc1,8.96
10,CCN(CC)C(=O)C(=O)c1cccn1-c1cccc(Cl)c1C#N,9.24
11,CCOc1ccc(-n2nc3ccc(NC(=O)CC)cc3n2)cc1,9.52
12,Cc1ccc(C)c(N(CC(=O)NC2CCCC2)C(=O)c2oc(C(C)(C)C)cc2C)c1,6.1
13,O=C1C=C(NCCc2ccccc2)C2(CCCCC2)O1,9.45
14,CCOC(=O)C(C)N1C(=O)S/C(=C/c2cc(C)n(-c3ccncc3)c2C)C1=O (stereo not shown),7.07
15,c1ccc(CCN2CN=C(Nc3nc4ccccc4s3)NC2)cc1,8.04
16,O=C(CSc1ccc(F)cc1)NC1CCCCC1,17.2
17,Cc1nc(NC(=O)CN2CCN(c3ccccc3F)CC2)sc1C(=O)N(C)C,11.1
18,Cc1ccccc1/C=N/n1c(C2CCCCC2)n[nH]c1=S,14.5
19,Cc1cnn(-c2cc(N/N=C/c3cccc(F)c3)ncn2)c1,15
20,CSCC(=O)N1CCCC(C(=O)c2cc(F)ccc2F)C1 (stereo not shown),10.2
21,COc1cc(C(=O)Nc2ccc(C(=O)NCC3CCCO3)cc2)cc(OC)c1OC (stereo not shown),16.1
22,O=C(O)C1CCCN(S(=O)(=O)c2ccc(Br)s2)C1 (stereo not shown),6.36
23,O=C(NC1CC1)C1CCN(C2CCN(C(=O)Cc3ccc(F)cc3)CC2)CC1,7.67

row,SMILES,"hERG current change (%, negative = inhibition) at 1uM [%]"
1,Oc1ccccc1C1=Nc2ccccc2N=C(c2ccco2)C1,-1.25
2,CC(=O)NC(=O)COC(=O)c1ccc2ncsc2c1,4.53
3,COC(=O)CN1C(=O)C2(OCCCO2)c2cc(Br)ccc21,15.3
4,CCN1C(=O)[C@@H]2[C@@H](c3ccc(-c4cccc(Cl)c4)c(OC)c3)N3CCCC[C@@]3(C(=O)OC)[C@@H]2C1=O.O=C(O)C(F)(F)F,14.3
5,O=C(O)C(Cc1ccccc1)NS(=O)(=O)c1ccc2c(c1)OCCO2 (stereo not shown),6.59
6,COc1ccc(CCNC(=O)CN2CCCc3ccccc32)cc1OC,10.6
7,CC(C)CN(Cc1cc2ccccc2[nH]c1=O)C(=O)c1cccnc1,2.95
8,COc1cc(C(=O)OC(C)C(=O)N2CCc3ccccc3C2)ccc1OCC(=O)N1CCOCC1 (stereo not shown),7.79
9,COP(=O)(C#Cc1ccccc1)C(O)c1ccc(Br)cc1 (stereo not shown),6.81
10,CC(NC(=O)CCc1nnc(CCCc2ccccc2)o1)c1ccccc1 (stereo not shown),0.626
11,O=C(CSc1nnc(-c2cccs2)n1CC1CCCO1)N1CCCC1 (stereo not shown),-20
12,CN(C(=O)c1cc(S(=O)(=O)N2CCc3ccccc32)cn1C)C1CCCCC1,-1.8
13,CC(C)NC(=O)c1cc(-c2ccco2)on1,3.22
14,Cc1ccc(-c2cc(C(=O)NCCCn3ccnc3)no2)cc1,-8.96
15,CCCCCn1c(=O)c(C(=O)NCc2ccccc2Cl)c(O)c2ccccc21,18.1
16,COCCOC(=O)c1c(N)n(CCCN2CCOCC2)c2nc3ccccc3nc12,-0.859
17,Cc1cc(C)c(NC(=O)C2CCC(=O)N2)c(C)c1 (stereo not shown),12.8
18,Cc1noc(C)c1CSc1ccccc1C(=O)Nc1nccs1,8.87
19,CN1C(=O)Cc2cc(S(=O)(=O)Nc3ccc(N4CCOCC4)cc3)ccc21,12.4
20,O=C(COC(=O)CCc1ccccc1)NC(c1ccccc1)c1ccccc1,3.99
21,Cc1sc2ncnc(SCC(=O)c3cccs3)c2c1C,-10.2
22,Cc1ccc(NC(=S)NCc2ccc(S(N)(=O)=O)cc2)c(C)c1,11
